Among the data in PubChem BioAssay AID687022 (Broad Institute, 2013) are Tm shift activity values, retold here.

Structures are written as SMILES. In all, about 1,000 compounds went through this assay and about 360 (36%) were called active.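 How the source made its calls: active means Fitted curve of melting temperature shift crosses the 1.0 threshold at or below the sample's highest valid tested concentration; inconclusive means Flat fit with activity 30 to 70, or invalid fit; inactive means Opposite direction, flat within 30, or no crossing.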 This part holds few or none of the hits.

This experiment deals with Fibroblast growth factor 22 (Homo sapiens) (UniProt Q9HCT0). The experiment is described as follows: FGF22 ligand-induced thermal stabilization – biophysical, thermal shift, cherry-pick, FGF22 synaptogenesis inhibitor project, dose response (AID 687022). Further: reference of the scale not given here. Particulars: recombinant FGF22 thermal shift, SYPRO orange melting; at 38 µM (top of the series) unless noted.
UniProt Q9HCT0, sequence (Q9HCT0 whole entry, looked up): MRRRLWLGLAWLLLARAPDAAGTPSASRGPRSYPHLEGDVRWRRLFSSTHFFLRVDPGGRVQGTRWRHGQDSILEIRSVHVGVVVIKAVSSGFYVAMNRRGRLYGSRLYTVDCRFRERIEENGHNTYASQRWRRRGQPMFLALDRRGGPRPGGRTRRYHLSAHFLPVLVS
For `Cc1ccc(Cl)cc1NS(=O)(=O)c1ccc2c(c1)NC(=O)C(C)C(=O)N2` (stereo not drawn), the Tm shift activity is inactive: -0.254%.

Consider `O=C(COc1ccc(S(=O)(=O)Nc2ccccc2)cc1)NCc1ccncc1`, for which the Tm shift activity was inactive: 0.021%.

Take `C[C@H](CO)N1C[C@H](C)[C@@H](CN(C)C(=O)Nc2ccc3c(c2)OCO3)Oc2c(NC(=O)c3cnccn3)cccc2C1=O`: the Tm shift activity is inactive: 0.216% [at 42 µM].

For the compound `C/C(=N\NC(=O)CNC(=O)c1ccncc1)c1ccc(C)cc1`, the Tm shift activity is inactive: -0.146%.

As for `CC(C)NC(=O)Nc1cccc2c1O[C@@H](CN(C)Cc1ccc(C(=O)Nc3ccccc3N)cc1)[C@@H](C)CN([C@H](C)CO)C2=O`, the Tm shift activity was inactive: -0.221%.

For `Cc1ccc(-n2c(O)c(C=NC3CCS(=O)(=O)C3)c3ccccc3c2=O)cc1C` (stereo not drawn), the Tm shift activity is inactive: -0.046%.

On to `O=C(C[C@H]1CC[C@H]2[C@@H](COC[C@H](O)CN2Cc2nccs2)O1)NCc1ccccc1F`, for which the Tm shift activity was inactive: 0.031% [at 42 µM].

For the compound `O=C(N[C@H]1CC[C@H](CCn2cc(C3(O)CCCC3)nn2)O[C@@H]1CO)C1CCCCC1`, the Tm shift activity was inactive: -0.187% [at 42 µM].

For `CCOc1ccc(NC(=O)c2cccc(-n3cccc3)c2)cc1S(=O)(=O)N1CCOCC1`, the Tm shift activity is inactive: 0.046%.

Turning to `COc1ccc(C(=O)N2C[C@@H]3[C@H](c4ccccc42)[C@@H](CO)N3Cc2ccccc2)cc1`, the Tm shift activity is inactive: -0.204% [at 42 µM].

As to `C[C@H](CO)N1C[C@H](C)[C@@H](CN(C)C(=O)CN(C)C)Oc2cc(C3=CCCCC3)ccc2S1(=O)=O`, the Tm shift activity was inactive: 0.246% [at 42 µM].

For `O=C(Nc1ccc2c(c1)[C@@H]1C[C@H](CC(=O)N3CCCCC3)O[C@@H](CO)[C@@H]1O2)NC1CCCC1`, the Tm shift activity is inactive: -0.198%.

On to `Cn1ncc2c(Nc3ccc(O)cc3)nc(Cl)nc21`, for which the Tm shift activity is inactive: 0.599%.

Consider `COCC(=O)Nc1ccc2c(c1)[C@H]1C[C@@H](CC(=O)NCCN3CCCCC3)O[C@H](CO)[C@H]1O2`, for which the Tm shift activity was inactive: 0.022%.

In the case of `O=C(O)c1cccc(-n2cc(-c3cccc(C(F)(F)F)c3)cn2)c1`, the Tm shift activity is inactive: 0.496% [at 5 µM].

Turning to `O=C(Nc1ccccc1F)N1[C@H](CO)[C@H]2c3ccccc3NC[C@H]21`, the Tm shift activity was inactive: 0.101% [at 42 µM].

`CC(=O)N1[C@H](CO)[C@@H](c2ccccc2)C12CN(C(=O)Cc1ccccc1)C2`: the Tm shift activity was inactive: 0.293%.

Take `C[C@@H]1CN([C@H](C)CO)S(=O)(=O)c2ccc(C#CC3CC3)cc2O[C@H]1CN(C)C(=O)c1ccncc1`: the Tm shift activity was inactive: -0.481%.

For `CC(C)NC(=O)N(C)C[C@H]1OCCCC[C@H](C)Oc2ccc(N(C)C)cc2C(=O)N([C@H](C)CO)C[C@H]1C`, the Tm shift activity is inactive: -0.324% [at 42 µM].

`CC(C)C#Cc1cnc2c(c1)C(=O)N([C@@H](C)CO)C[C@H](C)[C@H](CN(C)C(=O)c1cnccn1)O2`: the Tm shift activity was inactive: -0.148% [at 42 µM].

On to `O=C(Nc1nnc(-c2ccccc2F)s1)c1ccccc1F`, for which the Tm shift activity is inactive: 0.215%.

For `CO[C@@H]1CN(C)C(=O)c2ccc(NC(=O)C3CC3)cc2OC[C@H](C)N(C(=O)CN2CCOCC2)C[C@@H]1C`, the Tm shift activity was inactive: -0.167%.

Turning to `COc1ccc(-n2nnnc2/C=C\Nc2ccc(C)cc2)cc1`, the Tm shift activity was inactive: 0.301%.

As to `O=C1COc2ccc(S(=O)(=O)N3CCCC3)cc2N1`, the Tm shift activity was inactive: -0.074%.

Turning to `O=C(Nc1ccc(Cl)cc1)N1C[C@@H]2[C@H](c3ccccc31)[C@H](CO)N2C(=O)C1CC1`, the Tm shift activity was inactive: 0.135%.

Take `O=C(C[C@H]1CC[C@@H]2[C@H](COC[C@@H](O)CN2Cc2nccs2)O1)NCc1ccccc1F`: the Tm shift activity is inactive: 0.024% [at 42 µM].

On to `COc1ccc(OC)c(NC(=O)NNC(=O)CCCOc2ccc(Cl)cc2C)c1`, for which the Tm shift activity was inactive: 0.596%.

Regarding `CO[C@H](CN(C)S(=O)(=O)c1cccc(Cl)c1)[C@H](C)CN([C@@H](C)CO)S(=O)(=O)c1cccc(Cl)c1`, the Tm shift activity is inactive: 0.223% [at 42 µM].

As for `O=C(C[C@@H]1CC[C@H]2[C@@H](COC[C@@H](O)CN2Cc2cccc(C(F)(F)F)c2)O1)NCc1ccncc1`, the Tm shift activity is inactive: -0.188%.

With `CCOC(=O)[C@@H]1[C@H]2COc3cc(OC)ccc3[C@H]2N2C(=O)N(c3ccc(C)cc3)C(=O)[C@]12C`, the Tm shift activity is inactive: -0.261%.

Take `Cc1ccccc1-c1ccccc1[C@H]1[C@@H](CO)N(C(=O)c2ccccc2)[C@H]1C#N`: the Tm shift activity was inactive: 0.238% [at 42 µM].

Turning to `CC(=O)NC[C@@H]1[C@@H](c2ccccc2)[C@@H](CO)N1C(=O)Cc1cccnc1`, the Tm shift activity is inactive: -0.004% [at 42 µM].

`CC(C)NC(=O)N[C@H]1CC[C@@H](CC(=O)O)O[C@@H]1CO`: the Tm shift activity was inactive: -0.134% [at 42 µM].

Regarding `CCc1ccc2nc(N)sc2c1`, the Tm shift activity was inactive: 0.106%.

Turning to `COCCNC(=O)c1cccc2c(-c3cnn(C)c3)coc12`, the Tm shift activity was inactive: -0.313%.

In the case of `CC(C)NC(=O)N(C)C[C@@H]1Oc2c(NC(=O)c3nc4ccccc4s3)cccc2C(=O)N([C@H](C)CO)C[C@H]1C`, the Tm shift activity is inactive: 0.053% [at 42 µM].

In the case of `COc1cc(NC(=O)c2ccc3c(c2)OCO3)ccc1NC(=O)c1cccs1`, the Tm shift activity was inactive: 0.52%.

As to `Cc1ccc(S(=O)(=O)Nc2ccc3c(c2)CC(=O)N([C@@H](C)CO)C[C@H](C)[C@@H](CN(C)S(C)(=O)=O)O3)cc1`, the Tm shift activity was inactive: -0.143%.

In the case of `Cc1cc(C(=O)Nc2cccc3c2O[C@@H](CN(C)C(=O)NC2CCCCC2)[C@@H](C)CN([C@H](C)CO)C3=O)n(C)n1`, the Tm shift activity was inactive: -0.109%.

Take `C[C@H]1CN([C@@H](C)CO)C(=O)c2cc(NC(=O)Cc3ccccc3)ccc2O[C@H]1CN(C)Cc1ccc2c(c1)OCO2`: the Tm shift activity is inactive: -0.068%.

For the compound `CCC(=O)N1[C@@H](CO)[C@@H]2c3ccccc3N(S(=O)(=O)c3ccc(F)cc3)C[C@@H]21`, the Tm shift activity is inactive: -0.157%.

In the case of `O=C(NCC[C@@H]1CC[C@@H](NC(=O)C2CCOCC2)[C@H](CO)O1)Nc1ccc(Cl)cc1`, the Tm shift activity was inactive: 0.778% [at 42 µM].

Consider `CSc1ccc(C(=O)NCC2CCN(C(=O)C(=O)c3cc4ccccc4o3)CC2)cc1`, for which the Tm shift activity is inactive: -1.12%.

Turning to `COCC#Cc1cnc2c(c1)C(=O)N([C@H](C)CO)C[C@H](C)[C@H](CN(C)C(=O)c1cnccn1)O2`, the Tm shift activity was inactive: -0.135%.

With `C[C@H](CO)N1C[C@H](C)[C@@H](CN(C)C)Oc2ncc(-c3cccnc3)cc2C1=O`, the Tm shift activity is inactive: 0.133% [at 42 µM].

As for `COc1cccc(NC(=O)N[C@H]2C=C[C@@H](CC(=O)N3CCN(C)CC3)O[C@H]2CO)c1`, the Tm shift activity is inactive: 0.241% [at 42 µM].

On to `COCC(=O)N1CC2(C1)[C@@H](c1ccccc1)[C@@H](CO)N2C(=O)NC1CCCC1`, for which the Tm shift activity is inactive: -0.066%.

With `Cc1noc(C)c1NC(=O)Nc1ccc2c(c1)C(=O)N(C)[C@H]1CC[C@H](CC(=O)N[C@@H]3CCN(Cc4ccccc4)C3)O[C@@H]1CO2`, the Tm shift activity was inactive: -0.093%.

For `C[C@H]1CN([C@@H](C)CO)C(=O)c2cc(C#Cc3ccccc3F)cnc2O[C@H]1CN(C)S(=O)(=O)c1ccccc1`, the Tm shift activity was inactive: -0.393% [at 42 µM].

On to `CN(C(=O)CCc1nnc(CCCCc2ccccc2)o1)C1CCOCC1`, for which the Tm shift activity is inactive: 0.106%.

`CCCNC(=O)N1C[C@@H]2[C@H](c3ccccc31)[C@H](CO)N2Cc1ccc(F)cc1`: the Tm shift activity was inactive: 0.09%.

On to `C/C=C/c1ccc([C@H]2[C@@H](CO)N(C(C)=O)C23CN(C(=O)c2ccc(F)cc2)C3)cc1`, for which the Tm shift activity is inactive: -0.84%.

For the compound `Nc1nc(-c2cccnc2)nn1C(=O)c1ccc(F)cc1`, the Tm shift activity is inactive: -0.035%.

Take `COc1cc(OC)c(C(=O)OCC(=O)NCC2CCCCC2)cc1OC`: the Tm shift activity is inactive: -0.139%.

Regarding `O=C(C1CCOCC1)N1C[C@@H]2[C@H](c3ccccc31)[C@@H](CO)N2Cc1ccccc1`, the Tm shift activity is inactive: -0.009% [at 42 µM].

As to `CCS(=O)(=O)NCCNc1ccc([N+](=O)[O-])cc1`, the Tm shift activity is inactive: -0.119%.

Turning to `C[C@@H]1CN([C@@H](C)CO)S(=O)(=O)c2ccc(C3=CCCCC3)cc2O[C@H]1CN(C)C(=O)CN(C)C`, the Tm shift activity was inactive: -0.231%.

`CS(=O)(=O)Nc1ccc2c(c1)[C@@H]1C[C@H](CC(=O)NCCc3ccccc3)O[C@@H](CO)[C@@H]1O2`: the Tm shift activity was inactive: 0.062%.

Take `CC(C)NC(=O)N1C[C@@H]2[C@H](c3ccccc31)[C@@H](CO)N2Cc1ccccn1`: the Tm shift activity was inactive: -0.058% [at 42 µM].

For `CCC(=O)N1CC2(C1)[C@H](c1ccccc1)[C@H](CO)N2S(=O)(=O)Cc1ccccc1`, the Tm shift activity was inactive: -0.305%.

Take `COc1ccc(C(=O)Nc2ccccc2N2CCOCC2)cc1S(=O)(=O)N1CCOCC1`: the Tm shift activity was inactive: -0.009%.

Take `Cc1noc(C)c1NC(=O)Nc1ccc2c(c1)CC(=O)N([C@@H](C)CO)C[C@H](C)[C@@H](CN(C)Cc1ccc3c(c1)OCO3)O2`: the Tm shift activity was inactive: -0.148%.

With `C/C(CC(=O)Nc1ccc2c(c1)OCCO2)=N\NC(=O)COc1ccc(C)cc1Br`, the Tm shift activity is inactive: -0.098%.

Consider `OC[C@H]1[C@H](c2ccc(-c3cccnc3)cc2)[C@H]2CN(Cc3ccccn3)CCCCN21`, for which the Tm shift activity is inactive: -0.002%.

Regarding `C[C@@H]1CN([C@H](C)CO)C(=O)Cc2cc(NS(C)(=O)=O)ccc2O[C@@H]1CN(C)Cc1ccc(C(=O)O)cc1`, the Tm shift activity is inactive: 0.177% [at 42 µM].

For `COc1ccc(CCNS(=O)(=O)CCNC(=O)c2ccc3c(c2)OCO3)cc1`, the Tm shift activity is inactive: -0.261%.

In the case of `CCCCNC(=O)C1c2cc(OC)c(OC)cc2C(=O)N(C)C1c1cccs1` (stereo not drawn), the Tm shift activity was inactive: 0.787% [at 5 µM].

Turning to `COCC(=O)N1C[C@H]2[C@@H](c3ccccc31)[C@H](CO)N2C(=O)Nc1ccccc1F`, the Tm shift activity is inactive: -0.026%.
